Sequences with one replicate were seen in a single cluster, so their values are uncertain.
system: ATP; assay: switch fluorescence ratio, 500 uM ATP over buffer (Cy3 cluster intensity, sum of 5 cycles each) (fold (ratio)); higher = stronger signal-on switching upon ATP binding; sequences stand for … in TCGTCGGCAGCGTCAGATGTGTATAAGAGACAGTTTTTTTTTTTTTTTTTTTTTTTTT…TC; settings: aptamer strand: ATP DNA aptamer (quencher-CACCTGGGGGAGTATTGCGGAGGAAGG + anchor), 100 nM annealed; ATP concentration: 500 uM; one replicate
Outline: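 Between each of five buffer/ATP cycles, the flow-cell was stripped with NaOH and re-annealed. Each cycle imaged Cy3-labelled switching-strand clusters, annealed to 100 nM quencher-labelled ATP aptamer on a modified Illumina MiSeq flow-cell, first in selection buffer and then after 15 min with 500 uM ATP at 22 °C. The fluorescence ratio is summed target-cycle over summed buffer-cycle Cy3 intensity per cluster, averaged per switch-domain sequence, with clusters outside 100-1000 RFU excluded.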
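Also: ATP exposure 15 min at 22 °C before imaging.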

Sequence	switch fluorescence ratio
ACTGGTAGCG	1.04
ACTGGTAGCT	1.03
ACTGGTAGTT	1.01
ACTGGTGGGT	1.05
ACTGGTGTGC	1.03
ACTGGTTACG	1.03
ACTGTAGGCG	0.972
ACTGTGTTCG	0.948
ACTTAATTAC	1.1
ACTTAGATTA	1.06
ACTTAGGGCG	1.04
ACTTATATGG	1.09
ACTTCATGTT	0.997
ACTTCATTGA	1.02
ACTTCCAGCT	1.2
ACTTCCCTCG	1.91
ACTTCGAGGG	1.31
ACTTCTCTGG	1.03
ACTTCTTTTT	1.02
ACTTGAGCCT	1.06
ACTTGAGGT	0.95
ACTTGAGTGC	0.959
ACTTGCCCAA	1.04
ACTTGGACTA	1.08
ACTTGGGGCG	1.05
ACTTGGGGG	1.01

Sequence	switch fluorescence ratio
ACTTGGTTAT	1.02
ACTTGTATCC	1.02
ACTTGTGAGG	0.958
ACTTTACAGA	1.37
ACTTTAGCCG	1.11
ACTTTTATT	1.18
ACTTTTCGCA	1.03
ACTTTTTATT	1.02
AGAAAAGGAC	0.985
AGAAACAAA	1.03
AGAAACAAGT	0.985
AGAAACCGCA	2.82
AGAAACGATT	1.05
AGAAACGCT	1.03
AGAAACGGCA	1.05
AGAAACTAGT	1.02
AGAAACTCTC	1.05
AGAAACTTGC	1.29
AGAAAGATTG	0.973
AGAACAAACG	1.19
AGAACAGTTC	1.05
AGAACCGCTG	1.11
AGAACGGCAC	1.79
AGAACTATTA	0.992
AGAACTGGGG	1.02
AGAACTGGT	0.946

Sequence	switch fluorescence ratio
AGAACTTCCC	1.22
AGAAGAATTA	1.02
AGAAGAGCG	1.02
AGAAGATCTG	0.963
AGAAGCAG	0.98
AGAAGCCCAG	1.02
AGAAGGCCAC	0.992
AGAAGGTGTG	1
AGAAGTAGGT	0.992
AGAAGTCAGG	1.02
AGAATCTGTT	0.939
AGAATGCAAT	0.971
AGAATGGTGC	1.05
AGAATGGTTG	0.948
AGAATTACTA	0.988
AGAATTCTGT	0.97
AGACAACATG	0.985
AGACAAGGTG	1.04
AGACACTCA	1.1
AGACAGCTA	1.42
AGACCGTATT	1.12
AGACCTATGT	0.976
AGACCTCTAC	1.31
AGACCTGCAG	1.04
AGACCTGGCG	0.959
AGACGCCGAG	1.02

Sequence	switch fluorescence ratio
AGACGCCTGT	1.07
AGACGGCAAT	1.81
AGACGGGCTC	1.02
AGACGTAGGC	1.02
AGACGTCAGG	0.98
AGACGTGATC	1.04
AGACGTGCTC	1
AGACGTGGGC	1.05
AGACTACAAC	1.09
AGACTCGGCC	1.02
AGACTCGTAA	1.07
AGACTGGCCA	0.977
AGACTGGCGT	1.02
AGACTTCAAG	1.01
AGACTTTTGT	0.976
AGAGAACGCC	1.03
AGAGAAGTTT	0.999
AGAGACCTGT	0.951
AGAGAGTATA	0.977
AGAGATAC	1.05
AGAGATACGT	1.04
AGAGATTAGA	1.02
AGAGCCCCTA	1.01
